According to the supplement of paper PMC9446081:
Out of some 39,000 compounds screened, about 220 (0.56%) showed activity. This is one part of the list.
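Note: static incubation at 37 °C against the wild-type strain, values averaged over two biological replicates.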

The compounds below were run on Escherichia coli K-12 BW25113 (assay: relative growth (OD600 normalised to plate interquartile mean) (fraction); higher = less growth inhibition, active = 0.2 or less). Details: 50 µM; LB; incubation time: overnight (16-24 h).
`C[C@@H]1CN([C@@H](C)CO)C(=O)Cc2cc(NS(C)(=O)=O)ccc2O[C@H]1CN(C)S(=O)(=O)c1ccc(Cl)cc1` was tested, and the relative growth was inactive: 1.02.
For `COc1ccc(S(=O)(=O)N[C@H]2C=C[C@H](CC(=O)NCCc3ccncc3)O[C@H]2CO)cc1`, the relative growth was inactive: 1.01.
`O=C(C[C@@H]1CC[C@H](NC(=O)C2CC2)[C@@H](CO)O1)NCCCN1CCOCC1` was tested, and the relative growth was inactive: 0.987.
For `COc1ccccc1NC(=O)N(C)C[C@@H]1Oc2cc(Br)ccc2S(=O)(=O)N([C@H](C)CO)C[C@H]1C`, the relative growth was inactive: 1.
With `Cc1cc(C(=O)Nc2cccc3c2O[C@@H](CN(C)C(=O)NC2CCCCC2)[C@@H](C)CN([C@@H](C)CO)C3=O)n(C)n1` the relative growth was inactive: 1.
For `C[C@H]1CN([C@@H](C)CO)C(=O)Cc2cc(NS(=O)(=O)c3ccc(Cl)cc3)ccc2O[C@@H]1CN(C)Cc1ccc(-c2ccccc2)cc1`, the relative growth was inactive: 0.918.
`C[C@@H]1CN([C@@H](C)CO)C(=O)Cc2cc(NS(=O)(=O)c3cccs3)ccc2O[C@H]1CN(C)S(=O)(=O)c1ccccc1` was tested, and the relative growth was inactive: 0.937.
`Cc1noc(C)c1NC(=O)N(C)C[C@H]1Oc2c(NS(=O)(=O)c3cn(C)cn3)cccc2C(=O)N([C@H](C)CO)C[C@H]1C` was tested, and the relative growth was inactive: 0.975.
For `COc1ccc(NC(=O)Nc2ccc3c(c2)C(=O)N([C@@H](C)CO)C[C@@H](C)[C@H](CN(C)C(=O)Cc2ccccc2)OCCCC[C@H](C)O3)cc1`, the relative growth was inactive: 0.982.
With `CCCCOc1ccc(CC(=O)NO)cc1` the relative growth was inactive: 0.857.
For `CCCC#Cc1ccc2c(c1)O[C@@H](CN(C)S(=O)(=O)c1cccc(OC)c1)[C@@H](C)CN([C@@H](C)CO)S2(=O)=O`, the relative growth was inactive: 1.03.
For `COc1ccc(-c2coc3cc(O)cc(OC)c3c2=O)cc1`, the relative growth was inactive: 0.962.
In the case of `COc1cc(OC)cc(C(=O)OCCN2CCCN(CCOC(=O)c3cc(OC)cc(OC)c3)CC2)c1`, the relative growth is reported as inactive: 0.981.
For `C[C@H]1CN([C@@H](C)CO)C(=O)c2cccc(NC(=O)c3nc4ccccc4s3)c2O[C@@H]1CN(C)C(=O)Nc1ccc(F)cc1`, the relative growth was inactive: 0.987.
`Cc1ccc(S(=O)(=O)Nc2cccc3c2O[C@H](CN(C)S(=O)(=O)c2cn(C)cn2)[C@@H](C)CN([C@H](C)CO)C3=O)cc1` was tested, and the relative growth was inactive: 0.998.
`COc1ccc(CN(C)C[C@H]2Oc3ccc(NS(=O)(=O)c4c(C)noc4C)cc3CC(=O)N([C@@H](C)CO)C[C@H]2C)cc1` was tested, and the relative growth was inactive: 0.993.
In the case of `C[C@@H]1CN([C@@H](C)CO)C(=O)c2cc(NC(=O)CCC(F)(F)F)ccc2O[C@@H]1CN(C)Cc1ccc(-c2ccccc2)cc1`, the relative growth is reported as inactive: 0.991.
`CCCN(C)C[C@H]1OCCCC[C@H](C)Oc2ccc(NC(=O)CCC(F)(F)F)cc2C(=O)N([C@@H](C)CO)C[C@H]1C` was tested, and the relative growth was inactive: 0.997.
With `C[C@@H]1CN([C@H](C)CO)C(=O)c2cc(NC(=O)Nc3ccccc3)ccc2O[C@H]1CN(C)CC1CCCCC1` the relative growth was inactive: 1.
For `C[C@@H]1CN([C@H](C)CO)C(=O)c2cccc(NC(=O)Nc3ccc4c(c3)OCO4)c2O[C@@H]1CN(C)Cc1ccc(Cl)c(Cl)c1`, the relative growth was inactive: 0.985.
For `CCOC(=O)c1cn[nH]c1N`, the relative growth was inactive: 0.95.
In the case of `C[C@H]1CN([C@@H](C)CO)C(=O)Cc2cc(NC(=O)NC3CCCCC3)ccc2O[C@@H]1CN(C)C(=O)Nc1ccc(C(F)(F)F)cc1`, the relative growth is reported as inactive: 1.03.
With `C[C@H]1CN([C@@H](C)CO)C(=O)Cc2cc(NC(=O)Cn3cnnn3)ccc2O[C@@H]1CN(C)Cc1ccc(C(=O)O)cc1` the relative growth was inactive: 0.99.
`CN(C)CCCNC(=O)C[C@@H]1CC[C@H]2[C@H](COc3ccc(NS(C)(=O)=O)cc3C(=O)N2C)O1` was tested, and the relative growth was inactive: 1.03.
`O=c1c(O)c(-c2ccccc2)oc2cc(O)cc(O)c12` was tested, and the relative growth was inactive: 0.996.
In the case of `Cc1noc(C)c1NC(=O)N[C@H]1C=C[C@H](CC(=O)NCCCN(C)C)O[C@H]1CO`, the relative growth is reported as inactive: 0.981.
For `COc1ccc(S(=O)(=O)N2C[C@@H](O)COC[C@@H]3O[C@@H](CC(=O)N[C@H]4CCN(Cc5ccccc5)C4)CC[C@H]32)cc1`, the relative growth was inactive: 0.854.
`COc1ccc(S(=O)(=O)Nc2ccc3c(c2)C(=O)N([C@@H](C)CO)C[C@H](C)[C@H](CN(C)S(C)(=O)=O)OCCCC[C@@H](C)O3)cc1` was tested, and the relative growth was inactive: 0.983.
With `C[C@@H]1CN([C@H](C)CO)C(=O)c2cc(NS(C)(=O)=O)ccc2O[C@@H](C)CCCCO[C@@H]1CN(C)C(=O)CCCN(C)C` the relative growth was inactive: 1.01.
`COC(=O)N[C@H](C(=O)N1CC2(CC2)C[C@H]1c1nc(-c2ccc3c(c2)C(F)(F)c2cc(-c4ccc5nc([C@@H]6[C@H]7CC[C@H](C7)N6C(=O)[C@@H](NC(=O)OC)C(C)C)[nH]c5c4)ccc2-3)c[nH]1)C(C)C` was tested, and the relative growth was inactive: 1.02.
For `C[C@H](CO)N1C[C@H](C)[C@@H](CN(C)C(=O)Nc2cccc(C(F)(F)F)c2)OCc2ccccc2-c2ccccc2C1=O`, the relative growth was inactive: 1.01.
For `COc1ccc(C=CC(=O)Nc2ccccc2C(=O)O)cc1OC`, the relative growth was inactive: 0.907.
With `CN(C)C(=O)c1ccc(-c2cccc(-c3nc(C(=O)NC4CCCCC4)cc4c3[C@@H](CCO)N([S@](=O)C(C)(C)C)C4)c2)cc1` the relative growth was inactive: 0.984.
`COc1ccc(NC(=O)N(C)C[C@H]2Oc3c(NC(=O)C4CCOCC4)cccc3C(=O)N([C@H](C)CO)C[C@@H]2C)cc1` was tested, and the relative growth was inactive: 1.04.
With `C[C@@H]1CCCCO[C@H](CN(C)C(=O)Nc2cccc3ccccc23)[C@@H](C)CN([C@H](C)CO)C(=O)c2cc(NC(=O)Nc3cccc4ccccc34)ccc2O1` the relative growth was inactive: 0.948.
With `CNC[C@@H]1OCCCC[C@@H](C)Oc2ccc(NC(=O)CCCN(C)C)cc2C(=O)N([C@H](C)CO)C[C@H]1C` the relative growth was inactive: 1.
For `CCC(=O)N1CCC(C(=O)O)CC1`, the relative growth was inactive: 1.02.
With `CC(C)NC(=O)N(C)C[C@@H]1Oc2ccc(NC(=O)NC3CCCCC3)cc2CC(=O)N([C@@H](C)CO)C[C@H]1C` the relative growth was inactive: 0.978.
With `C[C@H]1CN([C@@H](C)CO)C(=O)Cc2cc(NC(=O)Cn3cnnn3)ccc2O[C@@H]1CN(C)Cc1ccc2c(c1)OCO2` the relative growth was inactive: 1.01.
In the case of `C[C@@H]1CN([C@@H](C)CO)C(=O)c2c(c3ccccc3n2C)-c2ccccc2CO[C@H]1CN(C)Cc1ccc2c(c1)OCO2`, the relative growth is reported as inactive: 1.01.
In the case of `COc1ccc(NC(=O)N(C)C[C@H]2OCCCC[C@H](C)Oc3ccc(NC(=O)Cc4ccccc4)cc3C(=O)N([C@@H](C)CO)C[C@H]2C)cc1`, the relative growth is reported as inactive: 0.997.
For `CCNc1nc(=O)cc(F)[nH]1`, the relative growth was inactive: 0.996.
In the case of `C[C@@H]1CN([C@H](C)CO)C(=O)c2cc(NC(=O)C3CCCCC3)ccc2O[C@@H](C)CCCCO[C@@H]1CN(C)C(=O)Nc1ccccc1`, the relative growth is reported as inactive: 1.02.
For `C[C@H]1CCCCO[C@H](CN(C)S(=O)(=O)c2ccc(F)cc2)[C@@H](C)CN([C@@H](C)CO)C(=O)c2cc(NC(=O)Nc3cccc4ccccc34)ccc2O1`, the relative growth was inactive: 1.
In the case of `C/C=C/c1ccc2c(c1)O[C@@H](CN(C)S(=O)(=O)c1ccc(C)cc1)[C@@H](C)CN([C@@H](C)CO)S2(=O)=O`, the relative growth is reported as inactive: 1.03.
`CC(C)NC(=O)Nc1ccc2c(c1)C(=O)N([C@H](C)CO)C[C@H](C)[C@@H](CN(C)C(=O)NC1CCCCC1)O2` was tested, and the relative growth was inactive: 0.996.
`Cc1noc(C)c1NC(=O)Nc1ccc2c(c1)C(=O)N([C@H](C)CO)C[C@@H](C)[C@H](CN(C)Cc1ccc(C(F)(F)F)cc1)O2` was tested, and the relative growth was inactive: 0.989.
For `C[C@@H]1CN([C@H](C)CO)C(=O)Cc2cc(NS(=O)(=O)c3ccccc3)ccc2O[C@@H]1CN(C)S(=O)(=O)c1ccccc1`, the relative growth was inactive: 0.979.
For `C[C@H]1CN([C@@H](C)CO)C(=O)CCCn2cc(nn2)CO[C@@H]1CN(C)Cc1cccc2c1OCCCO2`, the relative growth was inactive: 0.997.
For `C[C@H]1CCCCO[C@@H](CN(C)Cc2ccc3c(c2)OCO3)[C@@H](C)CN([C@@H](C)CO)C(=O)c2cc(NC(=O)Nc3ccccc3)ccc2O1`, the relative growth was inactive: 0.905.
For `C[C@H]1CN([C@@H](C)CO)C(=O)c2cc(NC(=O)C3CCCCC3)ccc2O[C@H]1CN(C)Cc1ccc(Oc2ccccc2)cc1`, the relative growth was inactive: 1.
With `C[C@@H]1CN([C@H](C)CO)C(=O)c2cccc(NC(=O)c3ccc(-c4nccs4)cc3)c2O[C@@H]1CN(C)Cc1ccc(-c2ccccc2)cc1` the relative growth was inactive: 1.
In the case of `CCS(=O)(=O)N1CCn2cc(Cn3cncn3)nc2C1`, the relative growth is reported as inactive: 1.
For `COc1ccc(NC(=O)Nc2ccc3c(c2)C(=O)N([C@H](C)CO)C[C@H](C)[C@H](CN(C)C(=O)Nc2ccc(C(F)(F)F)cc2)OCCCC[C@@H](C)O3)cc1`, the relative growth was inactive: 1.01.
With `COc1ccc(NC(=O)N(C)C[C@@H]2OCCCC[C@@H](C)Oc3ccc(NC(=O)Cc4ccccc4)cc3C(=O)N([C@@H](C)CO)C[C@@H]2C)cc1` the relative growth was inactive: 0.994.
In the case of `CCCC(=O)Nc1ccc2c(c1)OC[C@H](C)N(Cc1ccc(-c3ccccn3)cc1)C[C@@H](C)[C@@H](OC)CN(C)C2=O`, the relative growth is reported as inactive: 1.
`Cc1noc(C)c1NC(=O)Nc1ccc2c(c1)C(=O)N([C@H](C)CO)C[C@H](C)[C@@H](CN(C)C(=O)Nc1ccc(C(F)(F)F)cc1)OCCCC[C@@H](C)O2` was tested, and the relative growth was inactive: 0.965.
In the case of `COc1ccc(S(=O)(=O)Nc2ccc3c(c2)C(=O)N(C)C[C@@H](OC)[C@H](C)CN(C)[C@H](C)CO3)cc1`, the relative growth is reported as inactive: 0.994.
`C[C@@H]1CN([C@H](C)CO)C(=O)c2cccc(NS(=O)(=O)c3cccs3)c2O[C@H]1CN(C)S(=O)(=O)c1ccccc1` was tested, and the relative growth was inactive: 1.02.
In the case of `COc1ccc(CNC(=O)C[C@@H]2CC[C@@H]3[C@H](COc4ccc(NC(=O)C(C)C)cc4C(=O)N3C)O2)cc1`, the relative growth is reported as inactive: 1.01.
